The other results are listed elsewhere or left out.

B1: PhoQ; a variant is named by its letters at X, in order, P23837 (parent)
chain: MKKLLRLFFPLSLRVRFLLATAAVVLVLSLAYGMVALIGYSVSFDKTTFRLLRGESNLFYTLAKWENNKLHVELPENIDKQSPTMTLIYDENGQLLWAQRDVPWLMKMIQPDWLKSNGFHEIEADVNDTSLLLSGDHSIQQQLQEVREDDDDAEMTHSVAVNVYPATSRMPKLTIVVVDTIPVELKSSYMVWSWFIYVLSANLLLVIPLLWVAAWWSLRPIEALAKEVRELEEHNRELLNPATTRELTSLVRNLNRLLKSERERYDKYRTTLTDLTHSLKTPLXXLQXXLRSLRSEKMSVSDAEPVMLEQISRISQQIGYYLHRASMRGGTLLSRELHPVAPLLDNLTSALNKVYQRKGVNISLDISPEISFVGEQNDFVEVMGNVLDNACKYCLEFVEISARQTDEHLYIVVEDDGPGIPLSKREVIFDRGQRVDTLRPGQGVGLAVAREITEQYEGKIVAGESMLGGARMEVIFGRQHSAPKDE

The variants in this assay derive from B1. Put plainly: enrichment ratio after two sorts for PhoP signalling (ratio (wild type AVST 3.29)); higher = more functional. Particulars: with PhoP (E. coli).
Take PFKH: the enrichment ratio is at most 0.25.
For the variant TYVD, the enrichment ratio is at most 0.25.
Next, NGRH: at most 0.25; WMNH: at most 0.25; GRLR: at most 0.25.
Next, PKAS: at most 0.25; MPIP: at most 0.25; RMMG: at most 0.25.
For the variant LNDG, the enrichment ratio was at most 0.25.
As for EVFV, the enrichment ratio is at most 0.25.
In the case of FPIG, the enrichment ratio is at most 0.25.
In the case of TILH, the enrichment ratio was at most 0.25.
Turning to EHHT, the enrichment ratio was at most 0.25.
MADI: the enrichment ratio is at most 0.25.
Next, ECYI: at most 0.25; WSYC: at most 0.25.
On to PCRF, for which the enrichment ratio is at most 0.25.
Next, YISQ: 0.456; SQDC: at most 0.25; ILKI: at most 0.25.
Turning to QAFA, the enrichment ratio is 7.62.
As to YRRI, the enrichment ratio was at most 0.25.
On to KYIS, for which the enrichment ratio is at most 0.25.
Regarding QPPA, the enrichment ratio was at most 0.25.
Take WFFF: the enrichment ratio was at most 0.25.
For the variant AIIQ, the enrichment ratio turned out to be 5.33.
For the variant SHHT, the enrichment ratio was at most 0.25.
With CFNI, the enrichment ratio is at most 0.25.
NHCH: the enrichment ratio is at most 0.25.
Consider VQAM, for which the enrichment ratio is at most 0.25.
Then QDAD, with at most 0.25; and WHQS, with at most 0.25; and GVCN, with at most 0.25.
Next, RYPD: at most 0.25; NRLD: at most 0.25.
Then PGTG, with at most 0.25; and SHHL, with at most 0.25.
As to LRNY, the enrichment ratio was at most 0.25.
Regarding VGHI, the enrichment ratio was at most 0.25.
Next, KAYY: at most 0.25; GMGF: at most 0.25; MKNL: at most 0.25.
In the case of EFAA, the enrichment ratio is at most 0.25.
With MTSL, the enrichment ratio turned out to be 7.89.
Regarding ISTS, the enrichment ratio was at most 0.25.
Then WETY, with at most 0.25.
Regarding VFQH, the enrichment ratio was at most 0.25.
As for MGAC, the enrichment ratio was found to be 6.95.
Turning to ICTL, the enrichment ratio was at most 0.25.
For VMSF, the enrichment ratio was at most 0.25.
As to FTWT, the enrichment ratio was at most 0.25.
Next, LRYH: at most 0.25; MVVK: at most 0.25; NESP: at most 0.25.
Turning to YFFM, the enrichment ratio is at most 0.25.
On to NIDR, for which the enrichment ratio was at most 0.25.
Take VNKL: the enrichment ratio is at most 0.25.
HFAM: the enrichment ratio is at most 0.25.
On to KFEP, for which the enrichment ratio is at most 0.25.
Consider SWDF, for which the enrichment ratio is at most 0.25.
Take VEEG: the enrichment ratio is at most 0.25.
In the case of QHNT, the enrichment ratio was at most 0.25.
On to IASH, for which the enrichment ratio is at most 0.25.
In the case of DLTC, the enrichment ratio is at most 0.25.
With ERDT, the enrichment ratio was at most 0.25.
On to NICP, for which the enrichment ratio is at most 0.25.
As to MMQD, the enrichment ratio is at most 0.25.
Turning to LFFD, the enrichment ratio was at most 0.25.
As to DNAM, the enrichment ratio was at most 0.25.
Next, ITAC: at most 0.25.
As for ITCF, the enrichment ratio was at most 0.25.
For EVNR, the enrichment ratio is at most 0.25.
In the case of NEDI, the enrichment ratio was at most 0.25.
Consider HWSF, for which the enrichment ratio is at most 0.25.
On to WDSH, for which the enrichment ratio was at most 0.25.
Then TEQT, with 23.1.
Then HGDF, with at most 0.25; and LCQG, with at most 0.25.
Consider ISCI, for which the enrichment ratio is 1.38.
Turning to ETSF, the enrichment ratio is at most 0.25.
As to HEVS, the enrichment ratio was at most 0.25.
As to IKNA, the enrichment ratio is at most 0.25.
For the variant RHTY, the enrichment ratio is at most 0.25.
Take FKKV: the enrichment ratio was at most 0.25.
As to EWRS, the enrichment ratio was at most 0.25.
For AFDK, the enrichment ratio was at most 0.25.
Regarding TWKC, the enrichment ratio was at most 0.25.
For DAVK, the enrichment ratio was at most 0.25.
On to PRKN, for which the enrichment ratio is at most 0.25.
Take FTTY: the enrichment ratio was at most 0.25.
For the variant SQYQ, the enrichment ratio is at most 0.25.
KISW: the enrichment ratio was at most 0.25.
For the variant DTRT, the enrichment ratio is at most 0.25.
Next, NWQN: at most 0.25; RNFP: at most 0.25; TWFT: at most 0.25.
MGLR: the enrichment ratio is at most 0.25.
Regarding LACY, the enrichment ratio is at most 0.25.
As for QYGY, the enrichment ratio is at most 0.25.
As to YMCM, the enrichment ratio was at most 0.25.
Turning to LQTC, the enrichment ratio is at most 0.25.
Then GIFL, with at most 0.25; and SKNS, with at most 0.25; and MDQF, with at most 0.25.
On to LVIP, for which the enrichment ratio is at most 0.25.
With FKTY, the enrichment ratio is at most 0.25.
For SPRH, the enrichment ratio was at most 0.25.
Then KHLP, with at most 0.25; and NHGV, with at most 0.25; and CRAS, with at most 0.25.
For PRLS, the enrichment ratio is at most 0.25.
For GLEG, the enrichment ratio is at most 0.25.
For AQLD, the enrichment ratio turned out to be 3.24.
Take MRDR: the enrichment ratio was at most 0.25.
Then QAAN, with at most 0.25.
Next, WCRD: at most 0.25.
Then TPVE, with at most 0.25; and RTPW, with at most 0.25; and YPFA, with at most 0.25.
Regarding DSPV, the enrichment ratio was at most 0.25.
Turning to TTEM, the enrichment ratio is at most 0.25.
Consider QTQP, for which the enrichment ratio was at most 0.25.
Regarding DTKR, the enrichment ratio is at most 0.25.
As to GVRP, the enrichment ratio is at most 0.25.
PTFF: the enrichment ratio is at most 0.25.
As for EQVP, the enrichment ratio was at most 0.25.
As to IPCC, the enrichment ratio is at most 0.25.
SSYE: the enrichment ratio is at most 0.25.
For WFML, the enrichment ratio is at most 0.25.
Regarding TAWP, the enrichment ratio is at most 0.25.
Turning to PYHY, the enrichment ratio is at most 0.25.
With VKPT, the enrichment ratio was at most 0.25.
In the case of KSWI, the enrichment ratio was at most 0.25.
Next, FKPW: at most 0.25; GMWW: at most 0.25.
Consider EVKP, for which the enrichment ratio was at most 0.25.
Regarding HHMR, the enrichment ratio is at most 0.25.
Turning to TYVM, the enrichment ratio is at most 0.25.
YTCD: the enrichment ratio was found to be 0.419.
SLNP: the enrichment ratio is at most 0.25.
Consider QDGY, for which the enrichment ratio was at most 0.25.
Turning to NVIS, the enrichment ratio is at most 0.25.
As for RMVC, the enrichment ratio is at most 0.25.
Next, FFWT: at most 0.25.
Next, KKDA: at most 0.25.
Next, VTAS: at most 0.25; VNPM: at most 0.25.
Turning to RVEY, the enrichment ratio was at most 0.25.
With CYGA, the enrichment ratio was at most 0.25.
Then SGES, with at most 0.25; and HRST, with at most 0.25; and GKHC, with at most 0.25.
Next, STEF: at most 0.25.

Values taken from a collection of fitness landscapes (doi:10.1126/science.1257360).
